Read counts are not given, so values of variants with three or more changes are uncertain.
B1: CPEB3 Ribozyme (parent)
chain: UAACAGGGGGCCACAGCAGAAGCGUUCACGUCGCAGCCCCUGUCAGAUUCUGGUGAAUCUGCGAAUUCUGCUGUAUAUCUC

Variants of: B1
Assay: self-cleavage, relative activity (ratio to wild type); higher = more cleavage; in vitro, sequencing
Procedure, shortened: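 Libraries of CPEB3 self-cleaving ribozyme mutants came from rounds of error-prone PCR and carried barcodes, which DNA sequencing matched to variants. In vitro transcription used T7 RNA polymerase at 37°C for 5 hours, with a further 15 min in DNase I before EDTA stopped the reaction; the ribozymes cleaved during both steps. The RNA was reverse transcribed with template switching and sequenced on Illumina. Relative activity is the cleaved/total read fraction of a variant divided by that of the unmutated ribozyme, averaged over three batches with at least 5 reads.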
With G10A A21G U69C U72C the self-cleavage was 0.16.
With C11A A18U U26A U51C A57U U72A the self-cleavage was 0.05.
With G10A A64G U72A the self-cleavage was 0.05.
In the case of C11A U26A A35G, the self-cleavage is reported as 0.61.
G10U U41C U58C showed a self-cleavage of 0.4.
For G10C A47G U51C, the self-cleavage was 0.08.
C11A A21G U74C gave a self-cleavage of 0.54.
Variant G10A C29G A64U C79U has a self-cleavage of 0.05.
G10U U58C U66C gave a self-cleavage of 0.08.
For G10A U25C G53C, the self-cleavage was 0.24.
For C11A A18G A35U A47G U58A U72C, the self-cleavage was 0.05.
With C11A A15G A21G U60C the self-cleavage was 0.34.
For G10U A13U C40U A45U U48A U60A U80C, the self-cleavage was 0.04.
G10A A20U U41A U48C A57G showed a self-cleavage of 0.08.
For G10C U51G A64G, the self-cleavage was 0.16.
G10C A18G U74C showed a self-cleavage of 0.27.
Work on C11A A15G U31C U60C yielded a self-cleavage of 0.05.
G10C U51C U80C showed a self-cleavage of 0.11.
For G10A A28G G33A U54C, the self-cleavage was 0.04.
G10A U41C U72A gave a self-cleavage of 0.2.
For C11A A13G A15G A75U, the self-cleavage was 0.7.
Work on G10U A15C U26C G30A U49C A56G yielded a self-cleavage of 0.25.
With C11A A35G U60C U74A A75G the self-cleavage was 0.08.
G10C A21U U54C A77C showed a self-cleavage of 0.12.
For G10U C17U C32A A57G U69C U76C, the self-cleavage was 0.03.
For G10A A56U A57G, the self-cleavage was 0.06.
In the case of G10U A20U U25C U43A U49G, the self-cleavage is reported as 0.04.
In the case of C11A U41A A45U U51A U60C, the self-cleavage is reported as 0.03.
Variant G10C C40U U51A has a self-cleavage of 0.06.
Variant G10A G24A U54C U72A U80C has a self-cleavage of 0.1.
Work on C11A U25A U60C A65G U67C yielded a self-cleavage of 0.05.
In the case of G10U A28U U51C, the self-cleavage is reported as 0.11.
Work on G10U A15G A21C U31C A45G A57G yielded a self-cleavage of 0.03.
Work on G10U A21G C38U U41A U43C U78C yielded a self-cleavage of 0.02.
C11A A28G U31C showed a self-cleavage of 0.07.
For C11A A21G A47G U76A, the self-cleavage was 0.06.
C11A A13G G24A G33A A47U A57G U80A showed a self-cleavage of 0.04.
Work on G10C A20G G36A A45G yielded a self-cleavage of 0.2.
For C11A U26C A57G A64U U67C U69C U80C, the self-cleavage was 0.04.
Work on G10C U49C U51C yielded a self-cleavage of 0.11.
Variant G10A U26G A28G has a self-cleavage of 0.3.
G10U U25C C71G A75U showed a self-cleavage of 0.05.
Work on C11A C17G A45G U48C yielded a self-cleavage of 0.06.
G10A C14U A20G U51C G52A gave a self-cleavage of 0.07.
G10A U31A U78C gave a self-cleavage of 0.06.
G10U C34U A35G showed a self-cleavage of 0.37.
Variant G10A A28G A45G U60C has a self-cleavage of 0.05.
C11A A15U A20G U54C showed a self-cleavage of 0.35.
Variant G10C A45U U58C U67C has a self-cleavage of 0.11.
In the case of G10U A13G U41C A45C, the self-cleavage is reported as 0.28.
G10A C71U U72C gave a self-cleavage of 0.07.
G10C U54A A56G gave a self-cleavage of 0.18.
G10C A21G U25C A47U A64U A77G showed a self-cleavage of 0.03.
C11A C12A U26A U31A U51C gave a self-cleavage of 0.04.
With G10A A35G C44U the self-cleavage was 0.21.
Work on G10A C27U A28G A56G C71A yielded a self-cleavage of 0.08.
In the case of G10A A56U U67C, the self-cleavage is reported as 0.06.
G10C U26C A47G A64C U69A gave a self-cleavage of 0.09.
Work on G10A C11G C59U A64C yielded a self-cleavage of 0.06.
G10U U51C U60C C68G gave a self-cleavage of 0.05.
Work on C11A A21C U43C G53U A64U U67C U69A yielded a self-cleavage of 0.03.
In the case of G10A C32U G52A U54C U80C, the self-cleavage is reported as 0.35.
For G10A U25C A45G U49A, the self-cleavage was 0.34.
With G10C G24U A28U U41C A75G the self-cleavage was 0.08.
G10A C11A U26A U48C U69C U72G gave a self-cleavage of 0.04.
In the case of G10C A21G C29U A65U U78C, the self-cleavage is reported as 0.05.
C11A U48C A57G U72G A77U showed a self-cleavage of 0.24.
Variant G10U U26C U41C U72C has a self-cleavage of 0.03.
Variant C11A A45G U48C U60C has a self-cleavage of 0.08.
G10U C23G G24C A57G G63A showed a self-cleavage of 0.1.
In the case of G10A U41A A65G, the self-cleavage is reported as 0.15.
In the case of G10U A65G U78C, the self-cleavage is reported as 0.06.
G10U C23G A28G C38U U51C U69C showed a self-cleavage of 0.07.
G10A A47G U78A gave a self-cleavage of 0.06.
Work on G10A U25C A65G U69A yielded a self-cleavage of 0.2.
Variant G10A U60A A65G U66C has a self-cleavage of 0.13.
Variant C11A C37G U43C U74C has a self-cleavage of 0.33.
Variant G10C A21G U26C U60A has a self-cleavage of 0.14.
G10A U41C A64G U69C gave a self-cleavage of 0.17.
Variant C11A A15G A20U A45G has a self-cleavage of 0.36.
Work on G10A A45C G53A A56G U69C yielded a self-cleavage of 0.1.
Variant G10A A28G G30C U48C has a self-cleavage of 0.08.
Variant G10A G52C G73A has a self-cleavage of 0.45.
In the case of G10C A20U U25A U41A, the self-cleavage is reported as 0.06.
In the case of G10U U43A A45C A47G U74C, the self-cleavage is reported as 0.15.
Work on G10A G30A U41A U43C G55A yielded a self-cleavage of 0.06.
For C11A A20G A35U U78C, the self-cleavage was 0.29.
G10A U60A G73A A75G gave a self-cleavage of 0.34.
C11A A20G U26C G30C showed a self-cleavage of 0.04.
For C11A A15U A20G A35U U66C A75G, the self-cleavage was 0.08.
Variant G10A A20U U26C A35G C37U U43C has a self-cleavage of 0.44.
G10C C34U A35G U43A U51A showed a self-cleavage of 0.34.
With G10U A18C U41C G63U the self-cleavage was 0.3.
G10U U41C U72G gave a self-cleavage of 0.13.
G10A A21G U25A U31A U51C showed a self-cleavage of 0.05.
Variant C11A U31C A65G U72A U78C has a self-cleavage of 0.04.
Work on G10A U25C U69A yielded a self-cleavage of 0.16.
In the case of C11A A20G A75G, the self-cleavage is reported as 0.03.
G10A A35G C39U gave a self-cleavage of 0.38.
Variant C11A A28G U60A U69A C79U has a self-cleavage of 0.22.
In the case of G10A U25A U54A, the self-cleavage is reported as 0.32.
G10A C12U A28G A35G U48C C62U gave a self-cleavage of 0.09.
Variant G10C C38A A45G A56G has a self-cleavage of 0.07.
Variant G10C A28G A45G U78A has a self-cleavage of 0.12.
For G10C U26C U60C, the self-cleavage was 0.17.
G10C A20U A21G C37G gave a self-cleavage of 0.14.
With G10A U41G U51C the self-cleavage was 0.31.
Work on G10A U51A A56G A57U yielded a self-cleavage of 0.11.
Work on G10C A56G A64G U72C yielded a self-cleavage of 0.17.
For G10A C14U A21G, the self-cleavage was 0.06.
For C11A A20U U26C U41G G42U, the self-cleavage was 0.05.
Work on G10A U41C A56G U69A A77G yielded a self-cleavage of 0.03.
Work on G10C A21G C23U U25A U54G yielded a self-cleavage of 0.09.
In the case of G10A U25C U66C, the self-cleavage is reported as 0.05.
Work on G10A A21G U43C U60C yielded a self-cleavage of 0.14.
C11A A13G A28G A56G U69C A75U gave a self-cleavage of 0.04.
Work on C11A A56G U58C U72C yielded a self-cleavage of 0.07.
For C11A A28C U31A U60C U76C, the self-cleavage was 0.04.
C11A U25C G30A C32G G52A U72C gave a self-cleavage of 0.05.
In the case of G10C A18G A45C, the self-cleavage is reported as 0.26.
C11A U41A A45G U54G gave a self-cleavage of 0.26.
For C11A A35G A45U U54G A56G, the self-cleavage was 0.22.
In the case of G10C U25C U49C U58C, the self-cleavage is reported as 0.15.
Work on G10A A47G A56G A75U U80C yielded a self-cleavage of 0.06.
With G10A U25C U48C U69C the self-cleavage was 0.1.
C11A A13G G19A A21G U25G U67C U78A gave a self-cleavage of 0.02.
C11A A18C A56U A64U showed a self-cleavage of 0.08.
G10A U41C U67C A77U gave a self-cleavage of 0.18.
For G10A C39A U80C, the self-cleavage was 0.25.
Variant G10C U54G A57G U66C has a self-cleavage of 0.08.
Variant C11A A13G U66C U72C has a self-cleavage of 0.31.
C11A A21U U51A U69G showed a self-cleavage of 0.05.
G10A A21G G53C G61A U72C showed a self-cleavage of 0.07.
In the case of C11A A21G U43C U66C A77U U78A, the self-cleavage is reported as 0.06.
G10C U51A C81A showed a self-cleavage of 0.25.
Work on G10U A13U U25C U41A yielded a self-cleavage of 0.17.
In the case of G10A U31C A47G U60A A64G U72A U76C, the self-cleavage is reported as 0.06.
Work on G10A C50U U60C U69A yielded a self-cleavage of 0.24.
In the case of G10C A18G U43A U51A, the self-cleavage is reported as 0.07.
G10A A20G C29G U54G A56G C79U showed a self-cleavage of 0.04.
With C11A U26C U41G U49C A64G the self-cleavage was 0.05.
G10C U26A U58C A65G U78C gave a self-cleavage of 0.05.
Work on G10C A15G A28U yielded a self-cleavage of 0.03.
For G10A U43C U60A C62U A65G U74A, the self-cleavage was 0.1.
In the case of G10C A21G U25C, the self-cleavage is reported as 0.32.
Variant C11A A15G G63U U72C has a self-cleavage of 0.69.
Work on G10C A28G A47G A65G G70U yielded a self-cleavage of 0.05.
For G10U A18C U31C U60A, the self-cleavage was 0.12.
Work on G10C A15U A35G yielded a self-cleavage of 0.23.
Variant G10U A13G A28G A35U U67C U72A has a self-cleavage of 0.13.
C11A A18G U25A U41G showed a self-cleavage of 0.25.
For G10A C27A C29U G53A U54G, the self-cleavage was 0.26.
For G10C G36A U43A U51A U72C, the self-cleavage was 0.18.
G10C U48C A65G showed a self-cleavage of 0.14.
For C11A G52C A57G U78C, the self-cleavage was 0.14.
Variant G10A C17A G30A A57G has a self-cleavage of 0.05.
In the case of C11A A20G A35G A56U, the self-cleavage is reported as 0.08.
With G10A A21G A47G U76A U78C the self-cleavage was 0.05.
In the case of G10C U25C U60C A65G U69C, the self-cleavage is reported as 0.08.
In the case of G10A A35U A47G A64U U74C, the self-cleavage is reported as 0.05.
For C11A A13G A18G U48C U60C A64G, the self-cleavage was 0.06.
Work on G10C C27U A57G U60A U78C yielded a self-cleavage of 0.06.
With G10A A21G A35U U41C A45G A56G U72A the self-cleavage was 0.03.
Work on G10A G33A U60A A64U U67C U80C yielded a self-cleavage of 0.04.
Variant C11A A13G A20G A56U has a self-cleavage of 0.1.
Work on G10A U41A A47U A65G yielded a self-cleavage of 0.04.
Variant G10A A47G U76A U80A has a self-cleavage of 0.33.
